# PubChem BioAssay AID1347073 (National Center for Advancing Translational Sciences (NCATS), 2019)
# About 200 (0.44%) of roughly 45,000 compounds were called active. Not shown: some 7% with an inconclusive outcome. The call rests on the fitted dose curve; in most records, active means well fitted activation curve with a large enough effect; inconclusive means small, poorly fitted or top-dose-only effect; inactive means no such curve, though single readings can be large or run the other way. This is one part of the list.
# Experiment: qHTS of TDP-43 Inhibitors: NCGC Sytravon Library Screen; further: nearly all actives have a fitted effect of over 55% in size; on growth rescue (activation): 0% is about no effect
# Settings: yeast TDP-43 toxicity rescue, BacTiter-Glo growth, 24 h; series mostly up to 46.1 µM; growth rescue (activation): at the top concentration
# Source text: The goal of this project is to identify new chemical probes capable of reversing the toxicity associated with TDP-43 which is associated with frontotemporal lobar degeneration and amyotrophic lateral sclerosis. These compounds will provide a complementary approach to deciphering the tangled mechanisms of toxicity and protection that we have uncovered through genome-wide genetic screens and are beginning to uncover in a large-scale proteomics analysis with mass spectroscopy. To this end, a miniaturized assay was developed to be screened against the Molecular Libraries Small Molecule Repository (MLSMR) to discover TDP-43 inhibitors. Please note that in the set-up this yeast-based assay compounds that inhibit as TDP-43, have a read-out as activators. NIH Chemical Genomics Center [NCGC] NIH Molecular Libraries Probe Centers Network [MLPCN] Assay Submitter (PI): Susan Lindquist, Whitehead Institute/MIT MLPCN Grant: R21 NS060957
# Dispense 2.5 microL yeast galactose medium per 1536-well plate, pin compound, dispense 2.5 microL TDP-43 expressing yeast in galactose medium at OD600=0.02 (pregrown in raffinose medium to mid-log phase) per well, incubate for 24 hr at 30 deg C, and cell growth will be measured using 5 microL of Bactiter/Glo reagent to entire plate and read using Luminescence Protocol in ViewLux.
# Potency means the concentration at half of the fitted maximal effect.
SMILES,growth rescue (activation),Potency
CCOc1ccccc1C(C(=O)NC1CCCC1)N(C(=O)c1csnn1)C1CC1 (stereo not drawn),inactive: 8.91%,
O=C(/C=C/c1ccco1)Nc1cccnc1,inactive: -6.71%,
Cc1cccc(S(=O)(=O)Nc2ccc(-c3nc4ccc(C)cc4s3)cc2)c1,inactive: -19.1%,
Cc1cc(OCc2cc(C(=O)N3CCCCCC3)no2)cc(C)c1Cl,inactive: 13.8%,
Cc1nn(CC(=O)OC(C)C(=O)Nc2ccccc2[N+](=O)[O-])c(C)c1[N+](=O)[O-] (stereo not drawn),inactive: 6.13%,
O=C(NCC1CCOCC1)c1cccc2c(-c3cccnc3)coc12,inactive: 14.5%,
CC1CCc2cc(F)cc3c(O)c(C(=O)NCc4ccco4)c(=O)n1c23 (stereo not drawn),inactive: -5.74%,
COCCNC(=O)/C(C#N)=C/c1cccc(NC(=O)c2ccccc2Cl)c1,inactive: 8.52%,
CC(C)(C)NC(=O)CN(C(=O)C1CSC(=O)C1)c1ccccc1F (stereo not drawn),inactive: 6.4%,
O=c1c([N+](=O)[O-])cccn1Cc1cccc(Br)c1,inactive: 17.2%,
CC1CCCN(c2ccc(C(=O)NCc3ccccc3)cn2)C1 (stereo not drawn),inactive: 5.56%,
COc1ccc(CNc2ccc([N+](=O)[O-])cc2C)cc1,inactive: -0.833%,
COc1ccccc1CN(C)C(=O)COC(=O)c1ccc(Cl)nc1,inactive: 5.21%,
CCCOc1cccc(C(=O)NC(=S)Nc2cccc(NC(=O)c3ccccc3Cl)c2)c1,inactive: -0.62%,
CC(C)(C)NC(=O)CN(CC1CCCO1)C(=O)CNS(=O)(=O)c1ccc(F)cc1 (stereo not drawn),inactive: 6.54%,
Cc1nc2c(OCc3ccc(Cl)cc3)cccn2c1N(C)C(=O)CCC1CCCC1,inactive: 15.4%,
COc1cc(CNC(=O)c2cc(-c3cc(OC)ccc3Cl)n[nH]2)cc(OC)c1,inactive: 14.2%,
O=c1c2ccccc2c(=O)n2n1Cc1ccccc1C2,inactive: 26.2%,
CCN1CCC(CNCc2cn(-c3ccc(OC)cc3)nc2-c2ccccc2Cl)C1 (stereo not drawn),inactive: -5.05%,
C/C(=N\Nc1c(Cl)c(Cl)nc(C(=O)O)c1Cl)c1ccc(O)cc1,inactive: -2.85%,
COc1cc(S(=O)(=O)N2CCC(N3CCCCC3)CC2)ccc1-n1cnnn1,inactive: 6.09%,
COc1ccc(-c2[nH]ncc2CN(CC2CCC(=O)N2)C(C)C)cc1F (stereo not drawn),inactive: 4.92%,

SMILES,growth rescue (activation),Potency
Cc1cc(NC(=O)COC(=O)[C@@H]2CCCN2C(=O)c2cccs2)no1,inactive: 9.61%,
CCC(=O)NCCNc1nc2cc(C)cc(C)c2cc1C#N,inactive: 9.74%,
O=C(O)CSc1nnc(CSc2nc3ccccc3s2)n1-c1ccccc1,inactive: -9.5%,
CC(=O)N1c2c(cc(Br)cc2S(=O)(=O)NCc2ccccc2)CC1C (stereo not drawn),inactive: 1.39%,
CSc1cccc(CNC(=O)CC2C(=O)NCCN2CC(C)(C)C)c1 (stereo not drawn),inactive: -4.2%,
CCCSc1ncc(Cl)c(C(=O)Nc2c(C(=O)c3ccc(F)cc3)oc3ccccc23)n1,inactive: 8.56%,
Cc1cccc(NC(=O)c2cc(Cl)nc3ccccc23)c1,inactive: 27.1%,
O=C(O)c1ccccc1CSc1nnnn1-c1ccccc1,inactive: 3.14%,
Cc1ccc(-n2c(C)cc(/C=C3/C(=N)N4C(c5ccccc5)=CSC4=NC3=O)c2C)cc1,inactive: 5.36%,
Cc1c(C#N)c(O)[nH]c(=O)c1N=Nc1ccc(Br)cc1C(=O)O,inactive: 14.8%,
Cc1ccc(-c2nnc(COC(=O)c3cc(=O)[nH]c4ccccc34)o2)cc1,inactive: 5.88%,
COc1ccc(C(=O)NNC2=CC(=O)CC(C)(C)C2)cc1OC,inactive: 11%,
COc1ccc(C(C)C)cc1S(=O)(=O)N1CCC(C(=O)NCC2CCCO2)CC1 (stereo not drawn),inactive: 19.3%,
O=C(NCc1ccco1)C1CCCN1C(=O)Nc1ccc(Cl)cc1 (stereo not drawn),inactive: -21.5%,
COc1ccc(Cl)cc1C(=O)Nc1ccc(CN2CCCCC2)cc1,inactive: 0.654%,
COc1ccc(CNC(=O)c2cccc(S(=O)(=O)N3CCN(c4ccc(F)cc4)CC3)c2)cc1,inactive: -8.02%,
CN(C)/C=C/C(=O)c1ccncc1,inactive: 5.83%,
O=C1NCCCC1C(=O)N1CCCCC1 (stereo not drawn),inactive: 2.03%,
COc1cc(/C=C2\SC(=S)N(CC(=O)Nc3ccccn3)C2=O)cc(OC)c1OC,inactive: 19.6%,
O=C(C1CC(=O)N(c2ccc(F)cc2)C1)N1CCOCC1 (stereo not drawn),inactive: 3.27%,
COc1ccc(/C=C(/C#N)C(=O)Nc2cccc([N+](=O)[O-])c2)cc1C(=O)O,inactive: 1.03%,
CCc1ccccc1NC(=O)Cc1ccc(-n2cccc2)cc1,inactive: 23.9%,

SMILES,growth rescue (activation),Potency
Cc1c(C)n(-c2ccc(Cl)cc2)c2ncnc(N)c12,inactive: -4.63%,
CCc1nc2c(OCc3ccc(C(=O)N(C)C)cc3)cccn2c1N(C)C(=O)c1ccc(C)cc1,inactive: 7.05%,
COc1ccc(S(=O)(=O)N2CCC(C(=O)NCc3ccncc3)CC2)cc1C,inactive: -13.1%,
COCCN1C(=O)C(=O)/C(=C(/O)c2ccc(S(=O)(=O)N3CCOCC3)cc2)C1c1cccc(Cl)c1 (stereo not drawn),inactive: -9.45%,
CC(CCc1ccccc1)NC(=O)C(Cc1ccccc1)NC(N)=O (stereo not drawn),inactive: -12.7%,
CCOCCCNC(=O)c1cc2c(=O)[nH]c3ccccc3c2s1,inactive: -3.92%,
O=C(OCc1ccccc1F)c1cnc(Cl)c(Cl)c1,inactive: 15.4%,
O=C(c1ccccc1)N1N=C(c2ccccc2)CC1c1cccs1 (stereo not drawn),inactive: 3.95%,
CCC1(CC)NC(=O)N(CC(=O)N2CCc3ccccc32)C1=O,inactive: -11.2%,
COc1cc(/C=N/N2C(=O)C3C4C=CC(CC4)C3C2=O)ccc1O (stereo not drawn),inactive: -12.8%,
CC(C)CCNC(=O)c1sc2ccc(S(=O)(=O)N3CCCCC3)cc2c1N,inactive: 13.6%,
N#Cc1ccc(-c2ccc3nccn3c2)cc1,inactive: 6.86%,
COc1cc(/C=N/NC(=O)c2ccc(-n3cccc3)cc2)ccc1O,inactive: 15.8%,
CCOc1ccc(C(O)(CCC(C)C)C(CN2CCOCC2)c2ccccc2)cc1 (stereo not drawn),inactive: 9.02%,
COc1cc(CNCCc2ccccc2)cc(Cl)c1OCc1ccccc1,inactive: 8.79%,
COc1ccc(N=Cc2cc(Cl)ccc2O)cc1Cl,inactive: 2.04%,
CCCc1cc(=O)[nH]c(SCC(=O)Nc2nc3ccc(OCC)cc3s2)n1,inactive: -3.21%,
CC(C)c1ccc(NC(=S)NCCc2c[nH]c3ccccc23)cc1,inactive: 29.8%,
Cc1ccc(Cl)cc1NC(=O)N1CCc2cc(S(=O)(=O)N3CCC(C)CC3)ccc21,inactive: -5.71%,
CCOc1ccc(NC(=O)C(=O)NCCN2CCN(C(=O)c3ccc(C)cc3)CC2)cc1,inactive: 15.5%,
O=C(CSc1nnc(CSc2nc3ccccc3s2)o1)NC1CCCCC1,inactive: -1.57%,
CCOC(=O)N1CCN(C(=O)CCC2CCCC2)CC1,inactive: 7.36%,

SMILES,growth rescue (activation),Potency
CN(Cc1cccc(F)c1)C(=O)CNS(=O)(=O)c1ccc2ccccc2c1,inactive: 7.8%,
COc1ccc(C(=O)Nc2ccc3c(c2)OCCO3)cc1[N+](=O)[O-],inactive: 7.57%,
O=C(Nc1ccc(NC(=O)c2ccccc2Cl)nc1)c1ccco1,inactive: -6.63%,
Cc1ccc(/C=N/NC(=O)c2ccoc2C)s1,inactive: 12.1%,
CC(Sc1nnc(NCc2ccccc2)s1)C(=O)Nc1ccc2c(c1)C(=O)c1ccccc1C2=O (stereo not drawn),inactive: 20.1%,
Cc1nnsc1Sc1ccccc1,inactive: 10%,
Cn1c(COc2ccccc2)nnc1SCC(=O)Nc1ccc(N2CCOCC2)cc1,inactive: 0.985%,
COc1ccccc1C1=NC(c2ccccc2)CN1c1ccccc1 (stereo not drawn),inactive: 7.61%,
Cc1ccc(S(=O)(=O)N2CCN(S(=O)(=O)N3CCC(C)CC3)CC2)cc1C,inactive: -8.49%,
CCc1[nH]nc(C(=O)N2CCCC(Nc3ccc(C(C)C)cc3)C2)c1C (stereo not drawn),inactive: -2.5%,
Cc1ccc2nc(Nc3ccc(Br)cc3)nc(-c3ccccc3)c2c1,inactive: 11.4%,
Cc1ccc(C(=O)NCCCNC(=O)c2ccccc2C)cn1,inactive: -13.4%,
O=C(NCC1COCCO1)c1cc(COc2c(F)cccc2F)on1 (stereo not drawn),inactive: -5.85%,
O=C(NCc1ccccc1)C(c1cccnc1)N(C(=O)c1ccccn1)c1ccccc1F (stereo not drawn),inactive: -2.09%,
c1ccc2c(c1)c1ccccc1n1c(-c3ccc4c(c3)OCO4)nnc21,inactive: 13.2%,
CCC(OC(=O)CNS(=O)(=O)c1ccccc1)C(=O)c1ccccc1 (stereo not drawn),inactive: -15.5%,
O=C(CSc1ccccn1)Nc1ccc2c(c1)oc1ccccc12,inactive: 4.78%,
O=C(Nc1ccccc1Cl)NC1(C(=O)NCc2cccnc2)CCCCC1,inactive: -2.1%,
CCC1CCCCN1C(=O)CSc1n[nH]c(N)n1 (stereo not drawn),inactive: 4.52%,
CCN(CC)S(=O)(=O)c1cc(NS(=O)(=O)c2cccc(Cl)c2Cl)ccc1C,inactive: 11.7%,
Cc1ccc(S(=O)(=O)N2CCN(CN3C(=O)CC4(CCCC4)C3=O)CC2)cc1,inactive: 11.8%,
Cc1ccc(S(=O)(=O)N2CCN(C3CC4CCC3C4)CC2)cc1 (stereo not drawn),inactive: -2.68%,

SMILES,growth rescue (activation),Potency
Cc1nc2nc(SCC(=O)c3cccc([N+](=O)[O-])c3)[nH]c2cc1Br,inactive: 7.04%,
COc1cccc(C(C(=O)NC2CCCC2)N(C(=O)c2ccco2)c2ccc(-n3cnnn3)c(C)c2)c1OC (stereo not drawn),inactive: 3.28%,
COC(=O)/C=C1/N/C(=N\c2nc(C)cc(C)n2)N(c2ccc(Cl)cc2)C1=O,inactive: 13.6%,
COc1ccc(Cc2nc(C(=O)Nc3ccccc3)cs2)cc1,inactive: 19.9%,
C=CCn1c(=S)[nH]c2cc(C(=O)Nc3ccc(OC)c(OC)c3)ccc2c1=O,inactive: 15%,
O=C(NCC1COc2ccccc2O1)c1c[nH]c2ccc(S(=O)(=O)N3CCOCC3)cc2c1=O (stereo not drawn),inactive: 12.3%,
COc1ccc(CNC(=O)CCSCc2ccccc2Cl)c(OC)c1,,active: 14.1 µM
Cc1ccc(CCN2CC(C(=O)NCCN(C)C)CC2=O)cc1 (stereo not drawn),inactive: 1.31%,
CC(=O)N1CCN(C(=O)c2ccc(OC3CCN(Cc4ccccn4)CC3)cc2)CC1,inactive: 1.12%,
O=C(CSc1nc2ncccc2[nH]1)NC1CCCCC1,inactive: -16.4%,
Cc1ccc(NC(=O)c2ccccc2NC(=O)Cc2ccccc2)cc1,inactive: 8.06%,
CCN1CCN(CC(=O)Nc2ccc(C(C)=O)cc2)CC1,inactive: 7.31%,
Cc1cccc(C)c1OCc1nc2ccccc2c(=O)n1/N=C/c1c[nH]c2ccccc12,inactive: 8.8%,
COc1ccc(OC)c(NC(=O)c2cc3ccccc3cc2OC)c1,inactive: 26.2%,
Cc1cc(C)c(C)c(S(=O)(=O)N2CCC(C(=O)Nc3ccccc3N3CCOCC3)CC2)c1C,inactive: 8.87%,
CCn1cc(Br)c(C(=O)Nc2ccccc2C(=O)OC)n1,inactive: 6.27%,
O=C(CN1C(=O)c2cccc3cccc1c23)NC1CCCC1,inactive: -20%,
O=C(CCN1C(=O)/C(=C/c2ccco2)SC1=S)Nc1ccc(C(=O)O)c(O)c1,inactive: 4.71%,
Cc1nc(N2CCN(S(=O)(=O)c3ccc(Br)cc3)CC2)c2c(C)c(C)sc2n1,inactive: -6.27%,
CC1CCCN(S(=O)(=O)c2cccc(C(=O)NCC3CCCO3)c2)C1 (stereo not drawn),inactive: -3.11%,
